Data from the supplement of paper PMC5499739.
Whole data set: some 16,000 sequences, median “Z-score” near -0.37, cut for the highest 2% near 3.1. The list shows a part of the results.

System: RBM10 RRM1-ZnF-RRM2 (GST-tagged construct)
Assay: RNAcompete 7-mer binding Z-score; higher = stronger binding preference
Experimental: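 RNAcompete: 20 pmol GST-tagged RBM10 RNA-binding constructs were incubated with a designed RNA pool of about 241,000 sequences up to 41 nt (1.5 nmol) on glutathione beads for 30 min at 4 °C and washed. Bound RNAs were identified by microarray hybridisation. Each RNA 7-mer is scored by a one-sided Z-score of its enrichment, computed over probes that contain the 7-mer within longer pool sequences.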

Row | Sequence | RNAcompete 7-mer binding Z-score
1 | GGGGCGU | 2.44
2 | AACGAUG | 0.501
3 | CGUCUUU | -0.613
4 | AGCCGGC | -0.559
5 | AGCCAAA | -0.369
6 | CUUGGUC | -0.821
7 | CAAACAU | -0.533
8 | AUUCGCC | -0.887
9 | CGUGAAA | -0.0707
10 | CGUAGAC | -0.271
11 | CUGAUAC | -0.504
12 | AUCCCCG | -0.734
13 | CAUAUUC | -0.832
14 | UUUGGGA | 1.35
15 | GACAGCU | -0.566
16 | CCCAAGC | -0.628
17 | AUACAUA | -0.238
18 | CUAGGUU | -0.187
19 | AUUGUUG | -0.296
20 | GAGUACG | 0.658
21 | CUUAGUG | -0.264
22 | ACGUGGG | 2.48
23 | UCCCACA | -0.683

Row | Sequence | RNAcompete 7-mer binding Z-score
24 | GGCGCUU | -0.402
25 | UUCAGCU | -0.806
26 | GUCGCGA | -0.26
27 | UACGAGC | -0.278
28 | CAUAGGG | 2.13
29 | AUGCCUC | -0.843
30 | AUAAGCG | 0.0677
31 | UGCGCCG | -0.347
32 | AAAAACU | -0.544
33 | UGCCGUA | -0.584
34 | CGAGCGA | 0.723
35 | ACUUAGC | -0.803
36 | UUACUGA | -0.566
37 | AGUUCUA | -0.694
38 | UCUGGCC | -0.621
39 | UGCACAA | -0.457
40 | ACGCGUC | -0.282
41 | CUGGAGU | 0.538
42 | AUCCCGU | -0.653
43 | GAGCCUU | -0.887
44 | UUUCGAU | -0.664
45 | GCUGAAU | -0.238
46 | UGACCAC | -0.613

Row | Sequence | RNAcompete 7-mer binding Z-score
47 | UUGCCGC | -0.766
48 | ACGGCUU | -0.435
49 | AGUAAAG | 0.793
50 | GGCAUGG | 2.23
51 | AAGAGCU | -0.0853
52 | UGGCCGA | 0.151
53 | CCGCGCA | -0.497
54 | GGCACCC | -0.282
55 | GUCGCGG | 0.687
56 | CAUGCCA | -0.646
57 | AAUAAUA | -0.384
58 | CCAAACA | -0.617
59 | GUUCGCA | -0.613
60 | CCACAUU | -0.803
61 | UGUUAAG | -0.0743
62 | CUCGGGC | -0.322
63 | CUUGGCG | -0.326
64 | CGUGGUC | 0.13
65 | CAAAGCA | -0.0816
66 | ACAAGGC | 1.3
67 | CCUUCUC | -0.777
68 | UUAACCU | -0.752
69 | CUCCAAG | -0.486

Row | Sequence | RNAcompete 7-mer binding Z-score
70 | UUUCUGU | -0.65
71 | GUUACAU | -0.0598
72 | GACUCUG | -0.865
73 | UUUUUCA | -0.522
74 | GGAAGUG | 2.59
75 | AAUAUCC | -0.763
76 | CUUGUCC | -0.865
77 | UCCCGCC | -0.748
78 | ACACUCC | -0.795
79 | UUAAGGA | 0.982
80 | UUCCCGU | -0.694
81 | GUGGAUC | 0.949
82 | CACUUUG | -0.887
83 | CAAGCAU | -0.402
84 | GGGGAAU | 3.13
85 | CGACAUC | -0.617
86 | CUCUAUC | -0.748
87 | CUACUUA | -0.664
88 | GAUGGUU | 1.68
89 | GAGGCCC | -0.362
90 | ACCGCAG | -0.519
91 | AACUAUA | -0.562
92 | UGUUUGC | -0.588

Row | Sequence | RNAcompete 7-mer binding Z-score
93 | GGACUGG | 1.64
94 | UUGACAG | 0.217
95 | AAGUGUU | 0.0969
96 | CGUGAGA | 0.308
97 | CAUGGAG | 1.7
98 | GUAGCGU | 0.206
99 | CCUUCCU | -0.93
100 | AGGAGAA | 2.16
101 | GCCGCCC | -0.668
102 | UAAGACA | -0.114
103 | ACCACUC | -0.69
104 | CCUUCCG | -0.755
105 | UAUGCGC | -0.537
106 | AGAUCUU | -0.755
107 | GGUCAUC | 0.0349
108 | AACUCGC | -0.887
109 | AACUAAA | -0.413
110 | GGUCGAA | 0.782
111 | UUCAAAG | -0.213
112 | UUAUGCU | -0.832
113 | ACCCCAG | -0.639
114 | AGGAGUA | 1.83
115 | UCGUGUC | -0.442

Row | Sequence | RNAcompete 7-mer binding Z-score
116 | AUUUCCA | -0.697
117 | CGACAAC | -0.449
118 | AGGUGGA | 3
119 | CAAUAAC | -0.479
120 | AACCCGC | -0.832
121 | CUGGUCA | -0.555
122 | AUUCAUU | -0.468
123 | AAAAUUU | -0.544
124 | CUAGCCU | -0.89
125 | UAUAUUU | -0.712
126 | UAAGCAC | -0.439
127 | CGCGAUC | -0.712
128 | CCUCACA | -0.752
129 | UUUGCCA | -0.697
130 | AAAUCUU | -0.708
131 | CCGCAGG | -0.0452
132 | AGGGCUU | 0.137
133 | UAACCGA | -0.686
134 | GACUAAC | -0.526
135 | GUGGGCA | 3.48
136 | CUUAAGG | 0.141
137 | AUCCCGC | -0.81
138 | UCAACGG | 0.388

Row | Sequence | RNAcompete 7-mer binding Z-score
139 | CUAGACG | -0.395
140 | AUCUUAA | -0.788
141 | UUUCAGG | 0.0277
142 | ACUAUCG | -0.551
143 | UCUGAUU | -0.872
144 | UCUUCCC | -0.759
145 | CGUUGAC | -0.362
146 | GUUAUUA | -0.22
147 | CUCGUGC | -0.73
148 | GCAGAAC | 0.155
149 | CAUGUAC | -0.457
150 | UGAAGGG | 3.56
151 | UGUUUAU | -0.588
152 | CACGGUA | 0.264
153 | AACGCCG | -0.559
154 | CGGCUAU | -0.599
155 | UCCGCGU | -0.468
156 | GCACGCA | -0.227
157 | CAAGGUU | 1.34
158 | AAAUGAC | -0.227
159 | AAGUAAU | -0.162
160 | AACUACA | -0.333
161 | GAUCCCU | -0.919

Row | Sequence | RNAcompete 7-mer binding Z-score
162 | UCACCCA | -0.883
163 | ACCACGG | 0.363
164 | CUUCCCC | -0.646
165 | AAAAUGG | 2.68
166 | UUUGUAU | -0.734
167 | CCGUGAU | -0.362
168 | AAAAUUA | -0.286
169 | AUAAGGU | 1.74
170 | CCCUUUU | -1.01
171 | GAAAUUA | -0.413
172 | GCUCCAU | -0.734
173 | AUUCUCU | -0.752
174 | GUGUAUC | -0.122
175 | CUUUAUA | -0.752
176 | CGGGUAU | 1.39
177 | GGGGUAA | 3.5
178 | AUAUACG | -0.0889
179 | GUAUCGA | -0.129
180 | GACUUUC | -0.89
181 | CUAGAUA | -0.61
182 | ACGCGAU | -0.358
183 | GUAUGUC | -0.195
